{
  "source": "paper PMC4336329",
  "about": "(PLoS ONE, 2015)",
  "note": "Out of some 310,000 compounds screened, about 14,000 (4.5%) showed an effect of 50% or more. Effects have a minus sign here. The list shows a part of the results.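 Also: peak tail current of the secondary pulse compared with the same well before compound.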",
  "data": [
    {"biological_target": "human ether-à-go-go-related gene (hERG) potassium channel (human, UniProt Q12809)", "sequence (Q12809 whole entry, looked up)": "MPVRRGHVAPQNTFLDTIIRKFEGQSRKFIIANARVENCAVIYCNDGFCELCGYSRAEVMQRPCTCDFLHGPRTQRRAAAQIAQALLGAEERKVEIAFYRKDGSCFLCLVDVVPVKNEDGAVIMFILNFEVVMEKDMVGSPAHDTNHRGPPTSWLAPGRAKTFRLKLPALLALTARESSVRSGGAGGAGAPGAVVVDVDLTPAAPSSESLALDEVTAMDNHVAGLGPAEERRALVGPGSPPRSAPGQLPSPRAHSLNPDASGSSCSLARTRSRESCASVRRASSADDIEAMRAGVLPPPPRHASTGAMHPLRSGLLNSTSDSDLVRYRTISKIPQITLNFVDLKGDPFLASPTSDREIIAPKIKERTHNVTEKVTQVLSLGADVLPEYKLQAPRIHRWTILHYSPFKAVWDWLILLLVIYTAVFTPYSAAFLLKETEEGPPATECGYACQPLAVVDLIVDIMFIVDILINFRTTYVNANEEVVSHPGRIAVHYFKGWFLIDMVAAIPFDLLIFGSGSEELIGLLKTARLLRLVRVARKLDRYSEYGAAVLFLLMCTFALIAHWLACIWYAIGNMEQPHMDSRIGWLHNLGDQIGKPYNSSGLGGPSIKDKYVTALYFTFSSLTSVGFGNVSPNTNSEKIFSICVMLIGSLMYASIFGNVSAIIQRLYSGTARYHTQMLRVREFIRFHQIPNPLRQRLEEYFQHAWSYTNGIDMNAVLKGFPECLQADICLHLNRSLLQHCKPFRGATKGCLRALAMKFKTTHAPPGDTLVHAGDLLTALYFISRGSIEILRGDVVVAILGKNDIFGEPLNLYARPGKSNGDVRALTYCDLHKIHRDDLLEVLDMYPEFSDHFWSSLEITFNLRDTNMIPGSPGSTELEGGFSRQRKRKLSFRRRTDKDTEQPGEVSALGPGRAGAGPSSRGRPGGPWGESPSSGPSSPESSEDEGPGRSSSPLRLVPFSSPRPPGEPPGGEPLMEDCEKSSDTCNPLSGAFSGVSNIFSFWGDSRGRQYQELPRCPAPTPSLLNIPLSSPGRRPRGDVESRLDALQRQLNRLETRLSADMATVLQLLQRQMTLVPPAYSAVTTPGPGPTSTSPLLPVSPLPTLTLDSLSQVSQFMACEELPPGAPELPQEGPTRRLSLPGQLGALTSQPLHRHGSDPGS", "test": "primary screen, population patch clamp on CHO cells stably expressing hERG", "units": {"hERG current change (%, negative = inhibition) at 10uM": "%"}, "values": [
      {"smiles": "Cc1cccc(C(=O)N/N=C/c2coc3ccccc3c2=O)c1", "hERG current change (%, negative = inhibition) at 10uM": 5.39},
      {"smiles": "O=C(O)c1cc(N/N=C/C=C/c2ccccc2[N+](=O)[O-])ccc1Cl", "hERG current change (%, negative = inhibition) at 10uM": 12.5},
      {"smiles": "COc1ccc(-c2nc(CS(=O)(=O)CC(=O)NCc3cccc(OC)c3OC)c(C)o2)cc1", "hERG current change (%, negative = inhibition) at 10uM": -18.4},
      {"smiles": "Cn1cc(C=C(C#N)C#N)c2ccccc21", "hERG current change (%, negative = inhibition) at 10uM": 6.83},
      {"smiles": "CCCOC(=O)C1[C@H]2C(=O)N(C(C)c3ccc(OC)cc3)C[C@]23C=C[C@H]1O3", "note": "(stereo partly shown)", "hERG current change (%, negative = inhibition) at 10uM": 1.3},
      {"smiles": "O=C1c2ccccc2C(=O)N1Cc1nc2ccccc2o1", "hERG current change (%, negative = inhibition) at 10uM": 22.5},
      {"smiles": "Cc1cc(=O)oc2cc(OC(=O)c3nn(C(C)C)c(=O)c4ccccc34)ccc12", "hERG current change (%, negative = inhibition) at 10uM": 10.1},
      {"smiles": "COC(=O)c1ccccc1S(=O)(=O)N1CCC(C(=O)NC2=NCCS2)CC1", "hERG current change (%, negative = inhibition) at 10uM": -32.8},
      {"smiles": "Cc1ccccc1S(=O)(=O)Cc1ccc(C(=O)NCCCOC(C)C)o1", "hERG current change (%, negative = inhibition) at 10uM": -14.7},
      {"smiles": "C=CCn1c(SCC2CCCCO2)nc2sc(CC)cc2c1=O", "note": "(stereo not shown)", "hERG current change (%, negative = inhibition) at 10uM": -2.19},
      {"smiles": "COC1(OC)N=C(NC(=O)Nc2ccccc2)C2(C#N)C(c3ccccc3)C12C#N", "note": "(stereo not shown)", "hERG current change (%, negative = inhibition) at 10uM": 14.5},
      {"smiles": "CCCC(=O)OC/C(O)=C(\\C#N)c1nc2ccccc2[nH]1", "hERG current change (%, negative = inhibition) at 10uM": 19.1},
      {"smiles": "COc1ccc(CCNC(=O)CCS(=O)(=O)c2ccc3c(c2)NC(=O)CO3)cc1OC", "hERG current change (%, negative = inhibition) at 10uM": 14.5},
      {"smiles": "COC(=O)c1nc(-c2ccc3c(n2)C(=O)C(N)=C(OC)C3=O)c(N)c(-c2ccc(OC)c(OC)c2O)c1C", "hERG current change (%, negative = inhibition) at 10uM": 11.8},
      {"smiles": "ONC(=Nc1ccc(Cl)cc1)c1ccccc1Cl", "hERG current change (%, negative = inhibition) at 10uM": -20.1},
      {"smiles": "O=C(ON=C1CCN(S(=O)(=O)c2ccccc2)CC1)c1cccc(Cl)c1", "hERG current change (%, negative = inhibition) at 10uM": 0.716},
      {"smiles": "Cc1cc(C(=O)NN=C(Cc2ccccc2)Cc2ccccc2)c(C)o1", "hERG current change (%, negative = inhibition) at 10uM": 1.42},
      {"smiles": "COC(=O)C1=C(c2ccc(F)cc2F)C[C@@H]2CC[C@H]1N2C(=O)N1CCOCC1", "hERG current change (%, negative = inhibition) at 10uM": 0.813},
      {"smiles": "Cc1ccc(C(C)(C)C)c(SCC(=O)Nc2nnc(C)s2)c1", "hERG current change (%, negative = inhibition) at 10uM": 2.81},
      {"smiles": "COC(=O)c1ccc(CSc2nnc(C)s2)cc1", "hERG current change (%, negative = inhibition) at 10uM": 8.93},
      {"smiles": "COc1ccc(Cn2c(O)c(/C=N/NC(=O)c3ccccc3)c(=O)[nH]c2=O)cc1", "hERG current change (%, negative = inhibition) at 10uM": 13.1},
      {"smiles": "COc1ccccc1OCCCCn1ncc2ccc(OC)c(OC)c2c1=O", "hERG current change (%, negative = inhibition) at 10uM": 10.4},
      {"smiles": "O=C(CN1C(=O)CN=C(c2ccccc2Cl)c2cc(Cl)ccc21)NCc1ccco1", "hERG current change (%, negative = inhibition) at 10uM": 3.75},
      {"smiles": "O=C(Cn1nc(C(=O)O)c2ccccc2c1=O)Nc1ccc2c(c1)C(=O)c1ccccc1C2=O", "hERG current change (%, negative = inhibition) at 10uM": 12.5},
      {"smiles": "CC1=C(C(=O)NCc2ccccn2)C2(CCC(C)CC2)OC1=O", "note": "(stereo not shown)", "hERG current change (%, negative = inhibition) at 10uM": -2.42},
      {"smiles": "COc1ccc(NC(=O)CSCC(=O)Nc2ccc(S(=O)(=O)N3CCCC3)cc2)cc1", "hERG current change (%, negative = inhibition) at 10uM": 26.7},
      {"smiles": "Cc1ccc(C(=O)CSc2nc3cc(S(=O)(=O)N4CCOCC4)ccc3o2)cc1", "hERG current change (%, negative = inhibition) at 10uM": 6.11},
      {"smiles": "CC(C)C(O)(C(=O)NNc1ccccc1)C(C)C", "hERG current change (%, negative = inhibition) at 10uM": -10.7},
      {"smiles": "Cc1ccc(C(=O)C2Oc3ccccc3C3CC(c4ccc(C)cc4)=NN23)cc1", "note": "(stereo not shown)", "hERG current change (%, negative = inhibition) at 10uM": 5.49},
      {"smiles": "O=C(c1cnc2n(c1=O)CCS2)N1CCCc2ccccc21", "hERG current change (%, negative = inhibition) at 10uM": -0.974},
      {"smiles": "COc1ccc(C2C(C#N)=C(N)Oc3cc(O)ccc32)cc1C", "note": "(stereo not shown)", "hERG current change (%, negative = inhibition) at 10uM": -26.1},
      {"smiles": "O=C1NCCO1", "hERG current change (%, negative = inhibition) at 10uM": -1.82},
      {"smiles": "CCOC(=O)c1c(O)c2ccccc2n(CC)c1=O", "hERG current change (%, negative = inhibition) at 10uM": 10.4},
      {"smiles": "CC(C)Cn1c(=O)oc2ccccc21", "hERG current change (%, negative = inhibition) at 10uM": 15.1},
      {"smiles": "N#C/C(=C\\c1c(Cl)cccc1Cl)c1nc2ccccc2o1", "hERG current change (%, negative = inhibition) at 10uM": -3.16},
      {"smiles": "COc1ccc(/C=C(/NC(=O)c2ccco2)C(=O)NCc2ccco2)cc1OC", "hERG current change (%, negative = inhibition) at 10uM": 6.29},
      {"smiles": "O=C(CSc1nc2ccccc2c(=O)n1Cc1ccc(C(=O)NC2CC2)cc1)NCc1ccco1", "hERG current change (%, negative = inhibition) at 10uM": -51.5},
      {"smiles": "O=C(COc1ccccc1)Nc1nnc(COc2ccccc2)s1", "hERG current change (%, negative = inhibition) at 10uM": 4.24},
      {"smiles": "CCN(Cc1ccccc1)C(=O)CCNS(=O)(=O)c1cc(Br)cnc1N", "hERG current change (%, negative = inhibition) at 10uM": -14.9},
      {"smiles": "COc1cc(C)ccc1OCc1cc(C(=O)N2CCN(C)C[C@@H]2c2ccccc2)no1", "hERG current change (%, negative = inhibition) at 10uM": -2.74},
      {"smiles": "COc1cc(CC2(CCc3ccncc3)C(=O)N(C)C(=O)N(C)C2=O)cc(OC)c1OC", "hERG current change (%, negative = inhibition) at 10uM": -8.33},
      {"smiles": "Cc1oc(-c2ccc(Cl)cc2)nc1CN1CCCC(C(=O)NCCCN2CCOCC2)C1", "note": "(stereo not shown)", "hERG current change (%, negative = inhibition) at 10uM": -19.4},
      {"smiles": "Cc1ccc(C(=O)NC2CC3CCC(C2)N3C)cc1", "note": "(stereo not shown)", "hERG current change (%, negative = inhibition) at 10uM": 5.71}
    ]}
  ]
}
